From patent publication US20170368082A1, “FORMULATIONS OF BRINCIDOFOVIR” (priority 2016, published 2017)
Further values from the same series stand in other lists.

Assay: Tissue distribution by quantitative whole-body autoradiography (QWBA)
Type: in vivo, male Sprague Dawley and Long-Evans rats
Details: 15 mg/kg IV
Protocol: The study utilized 4 groups of male SD rats (albino), and 3 groups of male LE rats (pigmented); a total of 39 rats. All animals were obtained from Hilltop Lab Animals, Inc. (Scottdale, Pa.). […] Rats in Group 5 were administered a single 2-h IV infusion of [^14C]brincidofovir at a target dose of 2 mg/kg. […] Three dosing formulations (one for high dose IV, one for low dose IV, and one for PO dose) were prepared at QPS on the day of dosing. The IV formulation for Groups 1, 2, 3, and 4 contained a vehicle of 10 mM sodium phosphate buffer in 5% dextrose solution at pH 8.0(±0.1).
Each animal, at their respective termination time points, was euthanized for QWBA analysis immediately after blood collection. One rat per time point per Group was euthanized as listed below.
The blood samples were maintained on wet ice (approximately 4° C.) and then centrifuged to obtain plasma within 1 h of the blood collection time. Centrifuge settings were recorded in the study notebook. Duplicate aliquots of plasma (0.050 mL) were analyzed for radioactivity using direct counting by LSC, and residual plasma was stored at approximately −70° C. and was saved for possible future analysis under a separate study protocol. Residual red blood cells were discarded as radioactive waste.
The pinna, distal limbs, hair, and tail were removed from each frozen carcass and each frozen carcass was embedded in an aqueous suspension of approximately 2% (w/v) carboxymethylcellulose and frozen into a block. The blocks were stored at approximately −20° C. prior to sectioning. Each blocked carcass was mounted on the object stage of a cryomicrotome (Leica CM3600 Cryomacrocut, Nussloch, Germany and Vibratome 9800, St. Louis, Mo.) maintained at approximately −20° C. and internal standards (3), which were plasma fortified with [^14C]-glucose at one concentration (approximately 0.05 μCi/mL), were placed into the frozen blocks, prior to sectioning, and were used for section thickness quality control. A number of whole-body sections (approximately 40 μm thick) were taken in the sagittal plane at various levels of interest using a whole-body cryomicrotome set at −20° C. Sagittal sections (20-50 μm thick) of frozen carcasses were exposed to phosphor imaging plates. Regions of images in tissues were converted to concentrations using standards. All of the major tissues, organs, and biological fluids were represented.
Tissue concentration data was determined for the following tissues and/or contents: adipose (brown and white), adrenal gland, bile (in duct), blood (cardiac), bone, bone marrow, brain (cerebrum, cerebellum, medulla), cecum (and contents), large intestine (and contents), epididymis, esophagus, eye (uvea and lens), Harderian gland, heart, kidney (cortex and medulla), liver, lung, lymph node, pancreas, pituitary gland, prostate gland, salivary gland, seminal vesicles, skeletal muscle, skin (pigmented and non-pigmented), small intestine (and contents), stomach (gastric mucosa and contents), spleen, spinal cord, testis, thymus, thyroid, and urinary bladder (and contents).
The imaging plate and sections were placed in light-tight exposure cassettes, in a copper-lined lead safe, for a 4-day exposure at room temperature. […] Quantification was performed by image densitometry using MCD image analysis software (v. 7.0, Interfocus Imaging Ltd) and a standard curve constructed from the integrated response [i.e., Molecular Dynamics Counts per square millimeter (MDC/mm^2)] and the nominal concentrations of the ^14C-calibration standards. The concentrations of radioactivity were expressed as the μg equivalents of [^14C]brincidofovir per gram sample (μg equiv/g). A lower limit of quantification (LLOQ) was applied to the data (See section 6.7.4).
Tissue concentrations that fell below the LLOQ were identified as being below the quantification limit (BQL). Tissue areas that were not visualized on autoradiographic images were identified as no sample (NS) and reported as BQL.

`CCCCCCCCCCCCCCCCOCCCOP(=O)(O)CO[C@H](CO)Cn1ccc(N)nc1=O` [[^14C]brincidofovir] showed a Concentration of radioactivity (Stomach (gastric mucosa), 2 h, SD rat) of 3.777 μg equiv./g, a Concentration of radioactivity (Stomach (gastric mucosa), 4 h, LE rat) of 1.430 μg equiv/g tissue and a Concentration of radioactivity (Stomach (gastric mucosa), 8 h, LE rat) of 1.223 μg equiv/g tissue. For the same compound, the Concentration of radioactivity (Stomach (gastric mucosa), 24 h, LE rat) was 0.295 μg equiv/g tissue, the Concentration of radioactivity (Stomach (gastric mucosa), 24 h, SD rat) was 1.333 μg equiv./g and the Concentration of radioactivity (Stomach (gastric mucosa), 72 h, LE rat) was 0.225 μg equiv/g tissue. It also gave a Concentration of radioactivity (Stomach (gastric mucosa), 96 h, LE rat) of 0.110 μg equiv/g tissue, a Concentration of radioactivity (Stomach (gastric mucosa), 168 h, LE rat) of 0.069 μg equiv/g tissue and a Concentration of radioactivity (Stomach (gastric mucosa), 168 h, SD rat) of 0.062 μg equiv./g. The Concentration of radioactivity (Stomach (gastric mucosa), 840 h, LE rat) was “BQL (BQL = Value is below the LLOQ)”, the Concentration of radioactivity (Testis, 1 h, LE rat) was 0.595 μg equiv/g tissue and the Concentration of radioactivity (Testis, 2 h, LE rat) was 1.321 μg equiv/g tissue. For the same compound, the Concentration of radioactivity (Testis, 4 h, LE rat) was 1.021 μg equiv/g tissue, the Concentration of radioactivity (Testis, 8 h, LE rat) was 0.802 μg equiv/g tissue and the Concentration of radioactivity (Testis, 24 h, LE rat) was 0.285 μg equiv/g tissue. The Concentration of radioactivity (Testis, 72 h, LE rat) was 0.240 μg equiv/g tissue, the Concentration of radioactivity (Testis, 96 h, LE rat) was 0.196 μg equiv/g tissue and the Concentration of radioactivity (Testis, 168 h, LE rat) was 0.098 μg equiv/g tissue. The Concentration of radioactivity (Testis, 840 h, LE rat) was “BQL (BQL = Value is below the LLOQ)”, the Concentration of radioactivity (Thymus, 1 h, LE rat) was 1.223 μg equiv/g tissue and the Concentration of radioactivity (Thymus, 2 h, LE rat) was 2.125 μg equiv/g tissue. It also gave a Concentration of radioactivity (Thymus, 4 h, LE rat) of 1.205 μg equiv/g tissue, a Concentration of radioactivity (Thymus, 8 h, LE rat) of 1.107 μg equiv/g tissue and a Concentration of radioactivity (Thymus, 24 h, LE rat) of 0.403 μg equiv/g tissue. The Concentration of radioactivity (Thymus, 72 h, LE rat) was 0.359 μg equiv/g tissue, the Concentration of radioactivity (Thymus, 96 h, LE rat) was 0.215 μg equiv/g tissue and the Concentration of radioactivity (Thymus, 168 h, LE rat) was 0.100 μg equiv/g tissue. The Concentration of radioactivity (Thymus, 840 h, LE rat) was “BQL (BQL = Value is below the LLOQ)”, the Concentration of radioactivity (Thyroid, 1 h, LE rat) was 1.486 μg equiv/g tissue and the Concentration of radioactivity (Thyroid, 2 h, LE rat) was 2.454 μg equiv/g tissue. The Concentration of radioactivity (Thyroid, 4 h, LE rat) was 1.884 μg equiv/g tissue, the Concentration of radioactivity (Thyroid, 8 h, LE rat) was 1.532 μg equiv/g tissue and the Concentration of radioactivity (Thyroid, 24 h, LE rat) was 0.567 μg equiv/g tissue. It also gave a Concentration of radioactivity (Thyroid, 72 h, LE rat) of 0.376 μg equiv/g tissue, a Concentration of radioactivity (Thyroid, 96 h, LE rat) of 0.197 μg equiv/g tissue and a Concentration of radioactivity (Thyroid, 168 h, LE rat) of 0.459 μg equiv/g tissue. The Concentration of radioactivity (Thyroid, 840 h, LE rat) was “BQL (BQL = Value is below the LLOQ)”, the Concentration of radioactivity (Urinary Bladder (contents), 1 h, LE rat) was 19.057 μg equiv/g tissue and the Concentration of radioactivity (Urinary Bladder (contents), 2 h, LE rat) was 26.805 μg equiv/g tissue. It also gave a Concentration of radioactivity (Urinary Bladder (contents), 4 h, LE rat) of 814.445 μg equiv/g tissue, a Concentration of radioactivity (Urinary Bladder (contents), 8 h, LE rat) of 82.440 μg equiv/g tissue and a Concentration of radioactivity (Urinary Bladder (contents), 24 h, LE rat) of 22.258 μg equiv/g tissue. It also gave a Concentration of radioactivity (Urinary Bladder (contents), 72 h, LE rat) of 1.911 μg equiv/g tissue, a Concentration of radioactivity (Urinary Bladder (contents), 96 h, LE rat) of 0.357 μg equiv/g tissue and a Concentration of radioactivity (Urinary Bladder (contents), 168 h, LE rat) of 0.104 μg equiv/g tissue. For the same compound, the Concentration of radioactivity (Urinary Bladder (contents), 840 h, LE rat) was “BQL (BQL = Value is below the LLOQ)”, the Concentration of radioactivity (Urinary Bladder, 1 h, LE rat) was 6.053 μg equiv/g tissue and the Concentration of radioactivity (Urinary Bladder, 2 h, LE rat) was 5.004 μg equiv/g tissue. It also gave a Concentration of radioactivity (Urinary Bladder, 4 h, LE rat) of 22.781 μg equiv/g tissue, a Concentration of radioactivity (Urinary Bladder, 8 h, LE rat) of 5.643 μg equiv/g tissue and a Concentration of radioactivity (Urinary Bladder, 24 h, LE rat) of 1.885 μg equiv/g tissue. The Concentration of radioactivity (Urinary Bladder, 72 h, LE rat) was 0.336 μg equiv/g tissue, the Concentration of radioactivity (Urinary Bladder, 96 h, LE rat) was 0.100 μg equiv/g tissue and the Concentration of radioactivity (Urinary Bladder, 168 h, LE rat) was “BQL (BQL = Value is below the LLOQ)”. The Concentration of radioactivity (Urinary Bladder, 840 h, LE rat) was “BQL (BQL = Value is below the LLOQ)”.
